Measured values taken from the antibiotic and cytotoxicity screens of Wong et al. (2023).
This is one part of the list.

These compounds were tested on HSkMC (human skeletal muscle cells) (assay: cytotoxicity call (relative viability < 0.9)). Settings: 10 µM.
In the case of `O=C(C[C@H]1CC[C@@H](NC(=O)Cc2ccccn2)[C@H](CO)O1)NCCc1ccncc1`, the cytotoxicity call is reported as “inactive”.
In the case of `C[C@@H]1CCCCO[C@H](CN(C)C(=O)Nc2cccc3ccccc23)[C@H](C)CN([C@@H](C)CO)C(=O)c2cc(NC(=O)NC3CCCCC3)ccc2O1`, the cytotoxicity call is reported as “inactive”.
In the case of `Cc1nnsc1-c1onc(C)c1C(N)=O`, the cytotoxicity call is reported as “inactive”.
`C[C@@H]1CCCCO[C@H](CN(C)S(=O)(=O)c2cccs2)[C@@H](C)CN([C@@H](C)CO)C(=O)c2cc(NS(C)(=O)=O)ccc2O1` was tested, and the cytotoxicity call was “inactive”.
With `COC(=O)[C@@H](N)CS[C@H]1CCCCO1` the cytotoxicity call was “inactive”.
With `CC(C)NC(=O)N(C)C[C@H]1OCCCC[C@H](C)Oc2ccc(NS(C)(=O)=O)cc2C(=O)N([C@@H](C)CO)C[C@H]1C` the cytotoxicity call was “inactive”.
For `C[C@@H]1CCCCO[C@@H](CN(C)Cc2ccc(Cl)c(Cl)c2)[C@H](C)CN([C@H](C)CO)C(=O)c2cc(NC(=O)Nc3cccc4ccccc34)ccc2O1`, the cytotoxicity call was “inactive”.
In the case of `C[C@@H]1CCCCO[C@@H](CN(C)C(=O)NC2CCCCC2)[C@H](C)CN([C@@H](C)CO)C(=O)c2cc(NC(=O)Nc3ccc(C(F)(F)F)cc3)ccc2O1`, the cytotoxicity call is reported as “inactive”.
With `C[C@@H]1CCCCO[C@@H](CN(C)CC2CC2)[C@H](C)CN([C@H](C)CO)C(=O)c2cc(NC(=O)C3CCCCC3)ccc2O1` the cytotoxicity call was “inactive”.
With `C[C@@H]1CN([C@@H](C)CO)C(=O)c2cccc(NC(=O)Nc3ccc(C(F)(F)F)cc3)c2O[C@@H]1CN(C)Cc1ccc(C(=O)O)cc1` the cytotoxicity call was “inactive”.
With `CC(C)NC(=O)N(C)C[C@@H]1Oc2ccc(NS(=O)(=O)c3ccc(Cl)cc3)cc2CC(=O)N([C@@H](C)CO)C[C@@H]1C` the cytotoxicity call was “inactive”.
In the case of `O=Cc1ccc(CO)o1`, the cytotoxicity call is reported as “inactive”.
`O=C(C[C@H]1C[C@H]2c3cc(NC(=O)Cc4ccncc4)ccc3O[C@H]2[C@@H](CO)O1)NCCN1CCCCC1` was tested, and the cytotoxicity call was “inactive”.
With `COc1ccc(C#Cc2cnc3c(c2)C(=O)N([C@@H](C)CO)C[C@H](C)[C@@H](CN(C)CC2CCOCC2)O3)cc1` the cytotoxicity call was “inactive”.
With `CC(C)NC(=O)Nc1ccc2c(c1)C(=O)N([C@H](C)CO)C[C@H](C)[C@H](CN(C)C(=O)Nc1ccc(F)cc1)OCCCC[C@H](C)O2` the cytotoxicity call was “inactive”.
For `Cc1noc(C)c1NC(=O)Nc1ccc2c(c1)C(=O)N([C@H](C)CO)C[C@@H](C)[C@H](CN(C)Cc1ccc(Cl)c(Cl)c1)OCCCC[C@H](C)O2`, the cytotoxicity call was “inactive”.
With `C=CCOC(=O)[C@H]1[C@@H]2C(=O)O[C@@H](c3ccccc3)[C@@H](c3ccccc3)N2[C@@H](c2ccc(OCCOC(=O)[C@H]3C[C@H]4C(=O)N5CCC[C@H]5C(=O)N4[C@H]3c3cccc(OCCO)c3)cc2)[C@]12C(=O)Nc1ccccc12` the cytotoxicity call was “inactive”.
With `Cc1nn2cc(CN)nc2s1` the cytotoxicity call was “inactive”.
In the case of `C[C@H]1CN([C@@H](C)CO)C(=O)c2cc(NC(=O)Nc3ccc(F)cc3)ccc2O[C@@H]1CN(C)CC1CCCCC1`, the cytotoxicity call is reported as “inactive”.
In the case of `C[C@H](CO)N1C[C@H](C)[C@H](CN(C)Cc2ccc(Cl)c(Cl)c2)Oc2ccc(NC(=O)Cc3cn(C)c4ccccc34)cc2CC1=O`, the cytotoxicity call is reported as “inactive”.
In the case of `CCCOc1c(-c2ccc3ccccc3n2)cnc2ccccc12`, the cytotoxicity call is reported as “inactive”.
`NC(=O)C[C@H]1Sc2ccccc2NC1=O` was tested, and the cytotoxicity call was “inactive”.
With `CNC[C@@H]1Oc2ccc(NC(=O)Cn3cnnn3)cc2CC(=O)N([C@@H](C)CO)C[C@H]1C` the cytotoxicity call was “inactive”.
With `Cc1cc(C(=O)Nc2cccc3c2O[C@H](CN(C)S(=O)(=O)c2cn(C)cn2)[C@H](C)CN([C@@H](C)CO)C3=O)n(C)n1` the cytotoxicity call was “inactive”.
With `CCO[C@H]1OC(C(=O)N2CCN(C)CC2)=C[C@@H](c2coc3ccccc3c2=O)[C@@H]1CCCOC(=O)NCCCCCC(=O)NO` the cytotoxicity call was “inactive”.
In the case of `C[C@@H]1CCCCO[C@H](CN(C)Cc2ccc3c(c2)OCO3)[C@H](C)CN([C@H](C)CO)C(=O)c2cc(NC(=O)NC3CCCCC3)ccc2O1`, the cytotoxicity call is reported as “inactive”.
For `Cc1ccc2nc(SCc3ccc4ccccc4c3)[nH]c2c1`, the cytotoxicity call was “inactive”.
With `C[C@@H]1CN([C@H](C)CO)C(=O)Cc2cc(NC(=O)Nc3ccc(C(F)(F)F)cc3)ccc2O[C@H]1CN(C)C(=O)NC1CCCCC1` the cytotoxicity call was “inactive”.
`CN1C(CCl)Nc2cc(Cl)c(S(N)(=O)=O)cc2S1(=O)=O` (stereo unspecified) was tested, and the cytotoxicity call was “inactive”.
With `Cc1noc(C)c1NC(=O)Nc1ccc2c(c1)C(=O)N([C@H](C)CO)C[C@H](C)[C@H](CN(C)C(=O)c1ccccc1)OCCCC[C@@H](C)O2` the cytotoxicity call was “inactive”.

Each compound was assayed on HepG2 (assay: cytotoxicity call (relative viability < 0.9)). Settings: 10 µM.
`C[C@H]1CN([C@@H](C)CO)C(=O)c2cc(C#CCN(C)C)cnc2O[C@@H]1CN(C)S(=O)(=O)c1cn(C)cn1` was tested, and the cytotoxicity call was “inactive”.
With `COc1ccccc1CN1C(=O)c2ccccc2[C@](Cc2ccccc2I)(C(=O)NCCCN(C)C)[C@@H]1c1ccc(CO)cc1` the cytotoxicity call was “active”.
For `C[C@@H]1CCCCO[C@@H](CN(C)C(=O)Nc2cccc3ccccc23)[C@H](C)CN([C@H](C)CO)C(=O)c2cc(NS(C)(=O)=O)ccc2O1`, the cytotoxicity call was “inactive”.
For `Cc1ccc(S(=O)(=O)N(C)C[C@H]2OCCCC[C@H](C)Oc3ccc(NC(=O)c4ccccc4)cc3C(=O)N([C@@H](C)CO)C[C@H]2C)cc1`, the cytotoxicity call was “inactive”.
For `C[C@H]1CN([C@@H](C)CO)C(=O)c2cc(NS(=O)(=O)c3ccc(F)cc3)ccc2O[C@H]1CN(C)S(=O)(=O)c1cn(C)cn1`, the cytotoxicity call was “inactive”.
For `Cc1noc(C)c1S(=O)(=O)Nc1cccc2c1O[C@@H](CN(C)Cc1ccc(Oc3ccccc3)cc1)[C@@H](C)CN([C@H](C)CO)C2=O`, the cytotoxicity call was “inactive”.
In the case of `O=C1c2ccccc2[C@](Cc2ccccc2I)(C(=O)NCc2ccccc2)[C@H](c2ccc(CO)cc2)N1Cc1ccccc1C(F)(F)F`, the cytotoxicity call is reported as “inactive”.
`C[C@@H]1CN([C@H](C)CO)C(=O)c2cc(NC(=O)CCC(F)(F)F)ccc2O[C@@H](C)CCCCO[C@@H]1CN(C)C(=O)c1ccccc1` was tested, and the cytotoxicity call was “inactive”.
For `COc1ccc(CN(C)C[C@H]2OCCCC[C@@H](C)Oc3ccc(NS(=O)(=O)c4ccc(Cl)cc4)cc3C(=O)N([C@@H](C)CO)C[C@@H]2C)cc1`, the cytotoxicity call was “inactive”.
For `NCCONC(=O)[C@@H]1CC[C@@H]2CN1C(=O)N2OS(=O)(=O)O`, the cytotoxicity call was “inactive”.
For `O=C(C[C@H]1CC[C@@H](NC(=O)Cc2ccccn2)[C@H](CO)O1)NCCc1ccncc1`, the cytotoxicity call was “inactive”.
In the case of `C[C@@H]1CCCCO[C@H](CN(C)C(=O)Nc2cccc3ccccc23)[C@H](C)CN([C@@H](C)CO)C(=O)c2cc(NC(=O)NC3CCCCC3)ccc2O1`, the cytotoxicity call is reported as “active”.
With `Cc1nnsc1-c1onc(C)c1C(N)=O` the cytotoxicity call was “inactive”.
`C[C@@H]1CCCCO[C@H](CN(C)S(=O)(=O)c2cccs2)[C@@H](C)CN([C@@H](C)CO)C(=O)c2cc(NS(C)(=O)=O)ccc2O1` was tested, and the cytotoxicity call was “inactive”.
For `COC(=O)[C@@H](N)CS[C@H]1CCCCO1`, the cytotoxicity call was “inactive”.
For `CC(C)NC(=O)N(C)C[C@H]1OCCCC[C@H](C)Oc2ccc(NS(C)(=O)=O)cc2C(=O)N([C@@H](C)CO)C[C@H]1C`, the cytotoxicity call was “inactive”.
`C[C@@H]1CCCCO[C@@H](CN(C)Cc2ccc(Cl)c(Cl)c2)[C@H](C)CN([C@H](C)CO)C(=O)c2cc(NC(=O)Nc3cccc4ccccc34)ccc2O1` was tested, and the cytotoxicity call was “inactive”.
In the case of `C[C@@H]1CCCCO[C@@H](CN(C)C(=O)NC2CCCCC2)[C@H](C)CN([C@@H](C)CO)C(=O)c2cc(NC(=O)Nc3ccc(C(F)(F)F)cc3)ccc2O1`, the cytotoxicity call is reported as “inactive”.
`C[C@@H]1CCCCO[C@@H](CN(C)CC2CC2)[C@H](C)CN([C@H](C)CO)C(=O)c2cc(NC(=O)C3CCCCC3)ccc2O1` was tested, and the cytotoxicity call was “inactive”.
`C[C@@H]1CN([C@@H](C)CO)C(=O)c2cccc(NC(=O)Nc3ccc(C(F)(F)F)cc3)c2O[C@@H]1CN(C)Cc1ccc(C(=O)O)cc1` was tested, and the cytotoxicity call was “inactive”.
For `CC(C)NC(=O)N(C)C[C@@H]1Oc2ccc(NS(=O)(=O)c3ccc(Cl)cc3)cc2CC(=O)N([C@@H](C)CO)C[C@@H]1C`, the cytotoxicity call was “inactive”.
With `O=Cc1ccc(CO)o1` the cytotoxicity call was “inactive”.
For `O=C(C[C@H]1C[C@H]2c3cc(NC(=O)Cc4ccncc4)ccc3O[C@H]2[C@@H](CO)O1)NCCN1CCCCC1`, the cytotoxicity call was “inactive”.
For `COc1ccc(C#Cc2cnc3c(c2)C(=O)N([C@@H](C)CO)C[C@H](C)[C@@H](CN(C)CC2CCOCC2)O3)cc1`, the cytotoxicity call was “inactive”.
For `CC(C)NC(=O)Nc1ccc2c(c1)C(=O)N([C@H](C)CO)C[C@H](C)[C@H](CN(C)C(=O)Nc1ccc(F)cc1)OCCCC[C@H](C)O2`, the cytotoxicity call was “inactive”.
`Cc1noc(C)c1NC(=O)Nc1ccc2c(c1)C(=O)N([C@H](C)CO)C[C@@H](C)[C@H](CN(C)Cc1ccc(Cl)c(Cl)c1)OCCCC[C@H](C)O2` was tested, and the cytotoxicity call was “inactive”.
`C=CCOC(=O)[C@H]1[C@@H]2C(=O)O[C@@H](c3ccccc3)[C@@H](c3ccccc3)N2[C@@H](c2ccc(OCCOC(=O)[C@H]3C[C@H]4C(=O)N5CCC[C@H]5C(=O)N4[C@H]3c3cccc(OCCO)c3)cc2)[C@]12C(=O)Nc1ccccc12` was tested, and the cytotoxicity call was “inactive”.
In the case of `Cc1nn2cc(CN)nc2s1`, the cytotoxicity call is reported as “inactive”.
With `C[C@H]1CN([C@@H](C)CO)C(=O)c2cc(NC(=O)Nc3ccc(F)cc3)ccc2O[C@@H]1CN(C)CC1CCCCC1` the cytotoxicity call was “active”.
For `C[C@H](CO)N1C[C@H](C)[C@H](CN(C)Cc2ccc(Cl)c(Cl)c2)Oc2ccc(NC(=O)Cc3cn(C)c4ccccc34)cc2CC1=O`, the cytotoxicity call was “active”.
For `CCCOc1c(-c2ccc3ccccc3n2)cnc2ccccc12`, the cytotoxicity call was “active”.
`NC(=O)C[C@H]1Sc2ccccc2NC1=O` was tested, and the cytotoxicity call was “inactive”.
`CNC[C@@H]1Oc2ccc(NC(=O)Cn3cnnn3)cc2CC(=O)N([C@@H](C)CO)C[C@H]1C` was tested, and the cytotoxicity call was “active”.
In the case of `Cc1cc(C(=O)Nc2cccc3c2O[C@H](CN(C)S(=O)(=O)c2cn(C)cn2)[C@H](C)CN([C@@H](C)CO)C3=O)n(C)n1`, the cytotoxicity call is reported as “inactive”.
For `CCO[C@H]1OC(C(=O)N2CCN(C)CC2)=C[C@@H](c2coc3ccccc3c2=O)[C@@H]1CCCOC(=O)NCCCCCC(=O)NO`, the cytotoxicity call was “inactive”.
With `C[C@@H]1CCCCO[C@H](CN(C)Cc2ccc3c(c2)OCO3)[C@H](C)CN([C@H](C)CO)C(=O)c2cc(NC(=O)NC3CCCCC3)ccc2O1` the cytotoxicity call was “inactive”.
